Measured values published in paper PMC4336329 (PLoS ONE, 2015).
Among all 310,000 compounds or so, about 2,200 (0.71%) showed an effect of 50% or more. The effect is printed as a negative number. Some of the results follow.

What follows are compounds tested against human ether-à-go-go-related gene (hERG) potassium channel (human, UniProt Q12809) (assay: primary screen, population patch clamp on CHO cells stably expressing hERG).
human ether-à-go-go-related gene (hERG) potassium channel, sequence (Q12809 whole entry, looked up): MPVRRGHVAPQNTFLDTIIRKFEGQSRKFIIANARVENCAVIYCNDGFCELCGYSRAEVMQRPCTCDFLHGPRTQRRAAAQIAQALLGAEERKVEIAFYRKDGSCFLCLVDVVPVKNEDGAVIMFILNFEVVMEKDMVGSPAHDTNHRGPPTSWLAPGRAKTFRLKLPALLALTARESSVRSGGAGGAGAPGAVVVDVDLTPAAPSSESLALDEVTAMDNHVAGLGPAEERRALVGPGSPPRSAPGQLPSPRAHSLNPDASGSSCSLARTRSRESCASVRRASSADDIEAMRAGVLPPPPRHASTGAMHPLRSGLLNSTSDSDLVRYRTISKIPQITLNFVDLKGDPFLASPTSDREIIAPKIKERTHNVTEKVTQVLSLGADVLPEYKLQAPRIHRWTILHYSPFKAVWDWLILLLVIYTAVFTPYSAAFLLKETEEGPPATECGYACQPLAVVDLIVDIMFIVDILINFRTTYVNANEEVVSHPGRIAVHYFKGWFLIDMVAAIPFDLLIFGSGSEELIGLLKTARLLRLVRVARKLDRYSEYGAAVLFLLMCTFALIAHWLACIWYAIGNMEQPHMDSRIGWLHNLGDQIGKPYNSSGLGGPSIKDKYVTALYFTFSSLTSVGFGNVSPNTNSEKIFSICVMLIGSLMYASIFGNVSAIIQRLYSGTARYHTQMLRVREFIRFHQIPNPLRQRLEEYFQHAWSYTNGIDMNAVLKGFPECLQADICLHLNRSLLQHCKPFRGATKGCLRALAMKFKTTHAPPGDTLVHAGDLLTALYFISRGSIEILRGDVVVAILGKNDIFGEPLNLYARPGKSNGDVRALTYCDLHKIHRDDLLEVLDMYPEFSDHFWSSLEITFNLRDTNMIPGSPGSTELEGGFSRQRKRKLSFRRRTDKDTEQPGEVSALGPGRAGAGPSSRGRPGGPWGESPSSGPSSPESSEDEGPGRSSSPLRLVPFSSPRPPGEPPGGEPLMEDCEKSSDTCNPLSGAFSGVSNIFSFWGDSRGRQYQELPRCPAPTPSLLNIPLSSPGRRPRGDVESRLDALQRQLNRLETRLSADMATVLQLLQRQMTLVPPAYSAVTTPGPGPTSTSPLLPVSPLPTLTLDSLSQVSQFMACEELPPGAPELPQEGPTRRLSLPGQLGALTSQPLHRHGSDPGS

| Structure (SMILES) | hERG current change (%, negative = inhibition) at 1uM |
| --- | --- |
| CCOC(=O)C1CCCN(C(=O)c2cc3c(C)nc4ccccc4c3o2)C1 (stereo not shown) | -17.7% |
| O=C(CN1CCOCC1)Nc1ccc2c(c1)OCO2 | 20.1% |
| CCOC(=O)C1=C(c2ccccc2)NC(=O)NC1c1ccc(N(C)C)cc1 (stereo not shown) | 7.74% |
| Cc1cc(N2C(=O)CC(Cc3ccccc3)C2=O)no1 (stereo not shown) | 6.33% |
| CCCc1cc(C(=O)NCCc2ccccc2)no1 | -4.85% |
| Cc1ccc(NC(=O)N2CCCCCC2)cc1 | 0.321% |
| CCOC(=O)C1CCCN(Cc2cc(Br)c(OC)cc2OC)C1 (stereo not shown) | 9.63% |
| COCCNc1ccc(S(=O)(=O)N2CCCC2)cn1 | 7.88% |
| Cc1nn(Cc2c(Cl)cccc2Cl)c(C)c1N | 5.33% |
| Cc1ccc(CN(Cc2cc3cccc(C)c3[nH]c2=O)C(=O)N(C)C)cc1 | 7.2% |
| Cc1ccc(CCN2C(=O)c3ccccc3C2C(=O)NCc2cccnc2)cc1 (stereo not shown) | 6.86% |
| COc1ccccc1Nc1nc(N)nc(CN2CCC(C)CC2)n1 | -37.3% |
| Nc1c(-c2ccc(Cl)cc2)cnc2c(-c3ccccc3)cnn12 | 18.5% |
| O=C(Cn1cc([N+](=O)[O-])cn1)NCc1ccco1 | -26.4% |
| O=C(NCc1ccccc1F)C1CCCN(S(=O)(=O)c2ccc(-n3cnnn3)cc2)C1 (stereo not shown) | -2.46% |
| O=C(CC1(c2ccc(Cl)cc2)C2CC3CC(C2)CC1C3)NCCO (stereo not shown) | 7.57% |
| CCOc1ccc(C(=O)COC(=O)CN2C(=O)NC3(CCCCC3C)C2=O)cc1 (stereo not shown) | -5.7% |
| CCOc1ccccc1-n1c(SCC(=O)NC(C)(C)C)nnc1-c1ccoc1C | 14.3% |
| CC(CCC(=O)O)C1CCC2C3CCC4C[C@H](O)CCC4(C)C3CC(=O)C12C (stereo partly shown) | 14.9% |
| Cc1cccc(C)c1NC(=O)CN(C)C(=O)c1cccc(NS(=O)(=O)c2ccccc2)c1 | -4.64% |

| Structure (SMILES) | hERG current change (%, negative = inhibition) at 1uM |
| --- | --- |
| CCCc1cc(=O)oc2cc(OCC(=O)NCCc3c[nH]c4ccccc34)ccc12 | -17.7% |
| CCCCn1c(CN2CCN(CCO)CC2)nc2ccccc21 | -26.6% |
| CCOC(=O)N1CCN(S(=O)(=O)c2ccc(F)cc2)CC1 | 13.6% |
| COc1cc(C(=O)Nc2ccc3c(c2)Cc2cc(NC(=O)c4cc(OC)c(OC)c(OC)c4)ccc2-3)cc(OC)c1OC | 14.8% |
| CCOc1ccc2nc(-c3ccccc3)nc(SCC(=O)OC)c2c1 | 16.9% |
| Cc1cc(C)cc(OCC(O)CN2CCN(Cc3ccc4c(c3)OCO4)CC2)c1.Cl (stereo not shown) | -67.9% |
| O=C(Nc1cc(S(=O)(=O)Nc2ccc(Cl)cc2)ccc1N1CCCCC1)c1ccc(F)cc1Cl | 9.08% |
| O=C(Nc1ccc2c(c1)CCC2)c1cccc(S(=O)(=O)N2CCN(c3ccccc3)CC2)c1 | -2.54% |
| CCNc1nnc(-c2ccc(C)cc2)o1 | 9.37% |
| CCN(CC)c1nc2c(s1)C(=O)NCCC2 | -0.411% |
| CCN(CC)CCn1c(=N)n(CC(O)c2ccc(OC)c(OC)c2)c2ccccc21.Cl (stereo not shown) | 8.84% |
| CCc1ccc(N2CC(C(=O)Nc3nc4ccc(S(C)(=O)=O)cc4s3)CC2=O)cc1 (stereo not shown) | 2.86% |
| C=CCn1c(Sc2ccccc2)nc2c1c(=O)[nH]c(=O)n2C | 3.05% |
| Cc1ccc(/C=C2\SC(=O)N(CCC(=O)N3CCN(C)CC3)C2=O)cc1 | 8.41% |
| COc1ccc(C(=O)CSc2nnc(COc3ccccc3)n2Cc2ccco2)cc1 | -16.8% |
| COc1ccc(-c2nc(CSCC(=O)NCCCN3CCCC3=O)c(C)o2)cc1 | 9.82% |
| COCCNC(=O)c1nn2cccnc2c1Cl | -0.365% |
| CC(C)[C@H](NC(=O)c1ccc(F)cc1)C(=O)NC1=NCCS1 | 15.6% |
| COc1cccc(CN2CC(C(=O)N(C)Cc3[nH]c4ccccc4c3C)CCC2=O)c1 (stereo not shown) | 7.06% |
| COc1ccc(CCNC(=O)COC(=O)c2ccc([N+](=O)[O-])o2)cc1 | 8.38% |

| Structure (SMILES) | hERG current change (%, negative = inhibition) at 1uM |
| --- | --- |
| Brc1ccc(Oc2ccc(Br)cc2Br)c(Br)c1 | 12% |
| CCOC(=O)C1CCN(c2nc(C)nc3c2oc2ccccc23)CC1.Cl | 5.64% |
| CCCNC(=O)COc1coc(CN2CCN(c3cccc(Cl)c3)CC2)cc1=O | 4.74% |
| O=C(NCCc1ccccn1)/C(=C/c1ccco1)NC(=O)c1ccccc1 | 5.6% |
| COc1ccc(S(=O)(=O)N2CC3C4C=CC(C4)C3C2)cc1 (stereo not shown) | 11.4% |
| COc1ccc(Br)cc1S(=O)(=O)NCc1ccccn1 | 4.7% |
| CC(CSc1nnnn1-c1ccccc1)Cn1c(N2CCCC2)nc2c1c(=O)[nH]c(=O)n2C (stereo not shown) | -15.8% |
| CSc1ncc2c(=O)[nH]c(-c3ccccc3)nc2n1 | 14.2% |
| CCOC(=O)CN(C(=O)COc1nc(-c2ccccc2)cc(C)c1C#N)c1ccc(C)cc1 | 8.45% |
| O=C(Oc1ccc(Br)cc1C(=S)N1CCOCC1)c1ccccc1 | -0.346% |
| CC(C)(C)Cc1cc(N)on1 | -2.6% |
| CCC(=O)Nc1cc(C(=O)N2CCC3(CC2)OCCO3)ccc1S(=O)(=O)c1ccc(C)cc1 | 8.68% |
| Cc1ccc(NC(=O)C2(S(=O)(=O)c3ccc(C)cc3)CC2)cc1 | 7.6% |
| Cc1csc(NC(=O)CSc2ccc([N+](=O)[O-])cn2)n1 | 2.66% |
| Cc1cc(NC(=O)c2ccc(NC(=O)C(C)Oc3ccccc3)cc2)no1 (stereo not shown) | 11% |
| O=C(O)CCSc1ccccn1 | 10.1% |
| CCCCC(=O)Nc1ccc(C(=O)Nc2nnc(COC)s2)cc1 | -3.54% |
| Cc1cccc(C)c1NC(=O)CN(C)CC(=O)Nc1ccc(F)c(Cl)c1 | 3.59% |
